# Experimental data taken from the antibiotic and cytotoxicity screens of Wong et al. (2023).
# The other results are listed elsewhere or left out.
# Assays:
# [1] = test system: HSkMC (human skeletal muscle cells); experiment: cytotoxicity call (relative viability < 0.9); conditions: 10 µM
# [2] = test system: S. aureus RN4220; experiment: growth inhibition call (relative growth <= 0.2); conditions: 50 µM
Compound,cytotoxicity call [1],growth inhibition call [2]
C[C@H](CO)N1C[C@H](C)[C@H](CN(C)S(=O)(=O)c2cccs2)OCCCC[C@H](C)Oc2ccc(NS(=O)(=O)c3cn(C)cn3)cc2C1=O,inactive,inactive
C[C@@H]1CCCCO[C@@H](CN(C)S(=O)(=O)c2ccc(Cl)cc2)[C@@H](C)CN([C@@H](C)CO)C(=O)c2cc(NC(=O)Nc3ccc4c(c3)OCO4)ccc2O1,inactive,inactive
C[C@@H]1CN([C@H](C)CO)C(=O)c2cc(C#Cc3ccncc3)cnc2O[C@H]1CN(C)S(=O)(=O)c1ccccc1F,inactive,inactive
C[C@@H]1CN([C@H](C)CO)C(=O)c2cccc(NS(C)(=O)=O)c2O[C@@H]1CN(C)C(=O)Nc1ccccc1,inactive,inactive
C[C@@H]1CN([C@H](C)CO)C(=O)Cc2cc(NS(=O)(=O)c3ccc(Cl)cc3)ccc2O[C@@H]1CN(C)C,inactive,inactive
O=C(CN1CCOCC1)NCC[C@H]1CC[C@H](NC(=O)Nc2ccccc2)[C@@H](CO)O1,inactive,inactive
Cc1ccc(S(=O)(=O)N(C)C[C@H]2OCCCC[C@@H](C)Oc3ccc(NC(=O)NC4CCCCC4)cc3C(=O)N([C@@H](C)CO)C[C@H]2C)cc1,inactive,inactive
COCC(=O)N(C)C[C@H]1Oc2cc(C#CCC3CCCC3)ccc2S(=O)(=O)N([C@H](C)CO)C[C@H]1C,inactive,inactive
C[C@@H]1CCCCO[C@H](CN(C)S(C)(=O)=O)[C@@H](C)CN([C@H](C)CO)C(=O)c2cc(NC(=O)c3ccncc3)ccc2O1,inactive,inactive
COc1ccc(NC(=O)Nc2ccc3c(c2)C(=O)N([C@H](C)CO)C[C@H](C)[C@@H](CN(C)S(=O)(=O)c2ccccc2)OCCCC[C@@H](C)O3)cc1,inactive,inactive
C[C@H](CO)N1C[C@H](C)[C@@H](CN(C)Cc2ccc(C(=O)Nc3ccccc3N)cc2)Oc2c(NC(=O)Nc3ccccc3)cccc2C1=O,inactive,inactive
C[C@H](CCC(=O)NCCS(=O)(=O)O)[C@H]1CC[C@H]2[C@@H]3[C@H](O)C[C@@H]4C[C@H](O)CC[C@]4(C)[C@H]3C[C@H](O)[C@]12C,inactive,inactive
COCC#Cc1ccc2c(c1)O[C@H](CN(C)C(=O)Nc1ccc(OC)cc1)[C@H](C)CN([C@H](C)CO)S2(=O)=O,inactive,inactive
Cc1noc(C)c1NC(=O)Nc1ccc2c(c1)C(=O)N([C@H](C)CO)C[C@H](C)[C@@H](CN(C)C(=O)Nc1c(C)noc1C)OCCCC[C@H](C)O2,inactive,inactive
CCn1c(Cl)nc2c1c(=O)n(C)c(=O)n2C,inactive,inactive
COc1cccc(S(=O)(=O)N2C[C@@H](O)COC[C@@H]3O[C@@H](CC(=O)N4CCN(C)CC4)CC[C@H]32)c1,inactive,inactive
Cc1noc(C)c1S(=O)(=O)Nc1ccc2c(c1)CC(=O)N([C@H](C)CO)C[C@@H](C)[C@H](CN(C)Cc1ccc(-c3ccccc3)cc1)O2,inactive,inactive
C[C@@H]1CCCCO[C@@H](CN(C)C(=O)NC2CCCCC2)[C@@H](C)CN([C@@H](C)CO)C(=O)c2cc(NC(=O)Nc3ccc4c(c3)OCO4)ccc2O1,inactive,inactive
O=C(C[C@@H]1C[C@@H]2c3cc(NC(=O)NC4CCCC4)ccc3O[C@@H]2[C@@H](CO)O1)NCCN1CCCCC1,inactive,inactive
CCCNC(=O)N[C@@H]1CC[C@@H](CC(=O)N2CCN(C)CC2)O[C@@H]1CO,inactive,inactive
C[C@@H]1CN([C@H](C)CO)C(=O)Cc2cc(NS(=O)(=O)c3ccc(F)cc3)ccc2O[C@H]1CN(C)Cc1ccncc1,inactive,inactive
Cc1cn2c3c(=O)n(C)c(=O)n(C)c3nc2n1CCN1CCOCC1,inactive,inactive
COc1ccc(S(=O)(=O)N(C)C[C@@H]2OCCCC[C@H](C)Oc3ccc(NC(=O)Nc4c(C)noc4C)cc3C(=O)N([C@@H](C)CO)C[C@H]2C)cc1,inactive,inactive
COc1ccc(NC(=O)Nc2ccc3c(c2)C(=O)N([C@H](C)CO)C[C@@H](C)[C@@H](CN(C)Cc2ccc(C(F)(F)F)cc2)O3)cc1,inactive,inactive
O=[N+]([O-])c1ccc(NCCNCCO)cc1,inactive,inactive
C[C@@H]1CN([C@@H](C)CO)C(=O)c2cccc(NC(=O)Nc3cccc4ccccc34)c2O[C@@H]1CN(C)S(=O)(=O)c1ccc(Cl)cc1,inactive,inactive
